According to PubChem BioAssay AID662 (National Center for Advancing Translational Sciences (NCATS), 2007):
The campaign covered roughly 71,000 compounds. About 1,800 (2.5%) were called active. The inconclusive results got no clear call from the source; some entries with a clear call stand among them for comparison. Calls come from the whole dose curve; as a rule, active = well fitted activation curve with a large enough effect in the signal ratio, with a control signal flat (not every such curve was filed as active); inconclusive = small, poorly fitted or top-dose-only effect, or effect the other way, or a change in a side signal; inactive = flat fitted curve, though single readings scatter; the % refers to the signal ratio. A potency beside an inconclusive call is a rough fit, not a confirmed value.

assay: Cell signaling CRE-BLA (Fsk stim); conditions: CHO CRE-bla reporter (cAMP response element driving beta-lactamase), forskolin EC10, beta-lactamase ratio; activity change, negative = inhibition: at 38.2 µM (top of the series) unless noted; for activity change, negative = inhibition: % of control where 0% means no effect
Outline: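 CRE-bla CHO reporter cells treated with compound titration plus EC10 NKH 477 (water-soluble forskolin), incubated 3 h at 37 °C; CCF4 loading 2 h at room temperature, 460/530 nm emission ratio read, AC50 values derived for positive or negative modulators.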
Potency is the fitted concentration of half-maximal effect; tags give direction and shape of the fitted curve.

| SMILES | activity change, negative = inhibition | Potency |
| --- | --- | --- |
| C[C@@H](CN1CCC(Cc2ccccc2)CC1)[C@@H](O)c1ccc(O)cc1 | inconclusive: -17.1% | – |
| Cc1ccc2nc3c(cc(C#N)c(=O)n3CCN3CCOCC3)c(=O)n2c1 | – | inconclusive: 10 µM [rising, partial curve] |
| COc1ccc(OC)c(N2C(=O)C(Cl)=C(N3CCOCC3)C2=O)c1 | inconclusive: 32.4% [at 7.6 µM] | – |
| CCOC(=O)Cc1csc(NC(=O)CSc2nc3cccnc3n2CC)n1 | inconclusive: 22.4% | – |
| O=C(c1ccc2c(c1)OCO2)[C@@H]1[C@@H]2C(=O)N(C3CCCCC3)C(=O)[C@@H]2C2c3ccccc3C=CN21 (some centres not stated) | – | inconclusive: 3.16 µM [falling, partial curve] |
| Fc1ccccc1N1CCN(c2nc3ccccc3n3nnnc23)CC1 | inconclusive: 4.76% | – |
| COc1ccc(N2CC(C(=O)NCCCN3CCOCC3)CC2=O)cc1 (configuration not stated) | inconclusive: -5.4% [at 7.6 µM] | – |
| Cc1noc(C)c1CSCC(=O)N1CCN(c2ccc(F)cc2)CC1 | inactive | – |
| C=CCOc1ccc2ccccc2c1CNc1ncn[nH]1 | inconclusive: 2.14% | – |
| CCOc1ccc(C2C=C(c3ccccc3)Nc3nnnn32)cc1 (configuration not stated) | – | inconclusive: 12.6 µM [falling, partial curve] |
| NS(=O)(=O)c1cc([C@@]2(O)NC(=O)c3ccccc32)ccc1Cl | inactive | – |
| CCOCc1nnc(NC(=O)CCc2ccccc2)s1 | inactive | – |
| Cc1[nH]nc2c1C(C1CC=CCC1)C(C#N)=C(N)O2 (configuration not stated) | inactive | – |
| Cc1ccc2[nH]c(=O)c(CN(Cc3ccc4c(c3)OCO4)Cc3nnnn3C3CCCC3)cc2c1 | inactive | – |
| CCN1CCCC1CNC(=O)c1cc2c(C)nc3ccccc3c2o1 (configuration not stated) | inactive | – |
| COc1cc(C(=O)NC2CC3CCCC(C2)N3CC(=O)Nc2ccccc2)cc(OC)c1OC (configuration not stated) | – | inconclusive: 15.8 µM [rising, single point] |
| CCNc1ncc2nc(-c3cc(F)cc(F)c3)c(=O)n(-c3ccccc3)c2n1 | – | inconclusive: 0.794 µM [rising, full curve] |
| Clc1cccc2sc(N3CCCCC3)nc12 | inconclusive: 5.46% | – |
| CCOC(=O)c1cccc(NC(=O)CN(c2ccc(C)cc2)S(=O)(=O)c2c(C)n[nH]c2C)c1 | – | inconclusive: 15.8 µM [rising, single point] |
| Cc1ccc(-c2nn3c(C)nnc3s2)cc1NC(=O)c1ccc(OC(C)C)cc1 | – | inconclusive: 7.94 µM [rising, partial curve] |
| CCc1cc(=O)oc2cc(C)cc(O)c12 | inactive | – |

| SMILES | activity change, negative = inhibition | Potency |
| --- | --- | --- |
| COc1cccc(-c2nccc(NCc3cnc(C)cn3)n2)c1 | – | inconclusive: 12.6 µM [rising, partial curve] |
| Cc1ccc(OCc2nnc(SCC(=O)N3CCOCC3)n2C)cc1 | inconclusive: 12.7% | – |
| O=c1cc(-c2cccc3ccccc23)[nH][nH]1 | inconclusive: -13% | – |
| O=C(CSc1nnc(-c2ccco2)n1-c1ccccc1)N1CCN(C(=O)c2ccco2)CC1 | – | inconclusive: 5.01 µM [falling, single point] |
| CCN(CC)CCOC(=O)C1(c2ccccc2)CCOCC1 | inactive | – |
| Cc1ccc2c(c1)N(CC(=O)NCC1COc3ccccc3O1)C(=O)CO2 (configuration not stated) | inactive | – |
| O=C(Cc1ccc(Cl)c(Cl)c1)OCCN1CCCC1 | inactive | – |
| Cc1cc(C)c(C#N)c(SCS(=O)Cc2ccccc2)n1 (configuration not stated) | – | inconclusive: 10 µM [rising, single point] |
| O=C(Nc1ccccc1N1CCOCC1)c1ccc(Br)o1 | – | inconclusive: 10 µM [rising, partial curve] |
| COC(=O)c1ccc(Oc2ccc3nnc(C)n3n2)cc1 | inactive | – |
| COCCn1c(=S)[nH]c2cc(C(=O)N3CCN(Cc4ccc5c(c4)OCO5)CC3)ccc2c1=O | – | inconclusive: 10 µM [rising, single point] |
| COc1cc(CC(=O)Oc2ccc3c(c2)OCO3)cc(OC)c1OC | inactive | – |
| CCOC(=O)C1=C(O)CSC1=Nc1cccc(Cl)c1 | inconclusive: 13.9% | – |
| CCOC(=O)c1sc(NS(=O)(=O)c2ccc(NC(C)=O)cc2)nc1C | – | inconclusive: 31.6 µM [falling, single point] |
| CCOC(=O)C1CCCN(C(=O)c2sc3nc(-c4ccccc4)cn3c2C)C1 (configuration not stated) | inconclusive: 27.6% | – |
| CCOC(=O)CSC(C)C(=O)Nc1nnc(C(C)C)s1 (configuration not stated) | – | inconclusive: 12.6 µM [rising, partial curve] |
| CCc1ccc2[nH]c(=O)c(C(c3nnnn3CCOC)N3CCN(c4ccccc4)CC3)cc2c1 (configuration not stated) | inconclusive: -13.3% | – |
| CCc1c(C)nc(N)n2c(SCC(=O)N3CCN(c4ccccc4)CC3)nnc12 | inconclusive: 0.214% | – |
| Cc1cc(C(=O)Nc2ccc(S(=O)(=O)Nc3onc(C)c3C)cc2)cs1 | inconclusive: 27.6% | – |
| Cl/C(=C\n1cncn1)c1ccc(Cl)cc1Cl | inconclusive: 8.42% | – |
| COc1ccc(-c2noc(CSc3nc(N)c(-c4ccccc4)c(=O)[nH]3)n2)cc1 | – | inconclusive: 10 µM [rising, partial curve] |

| SMILES | activity change, negative = inhibition | Potency |
| --- | --- | --- |
| Nc1nc(-c2ccccc2)cc(N2CCCCC2)n1 | inconclusive: 4.73% | – |
| C(=C\c1ccccc1)/CSc1nnc(-c2ccccn2)n1Cc1ccco1 | – | inconclusive: 10 µM [rising, partial curve] |
| COc1ccc(C2(O)CCN(CCCCOc3ccccc3)CC2)cc1 | inactive | – |
| CCOC(=O)c1cccc(NC(=O)C(C)N2C(=O)c3ccccc3C2=O)c1 (configuration not stated) | inconclusive: -28.3% | – |
| CC(C)=CCC1=C(OCC(=O)O)C(=O)c2ccccc2C1=O | – | inconclusive: 5.01 µM [rising, single point] |
| CC1CCN(Cc2nc3c(c(=O)n(C)c(=O)n3C)n2CCN2CCOCC2)CC1 | inactive | – |
| O=C(c1ccco1)N1CCC2(CCN(Cc3ccccc3)CC2)CC1 | inactive | – |
| CC(C)(C)NC(=O)CSc1nncn1-c1ccccc1 | – | inconclusive: 0.631 µM [falling, partial curve, poor fit] |
| COc1cccc(-c2cc(C(=O)N3C(C)CCCC3C)no2)c1 (configuration not stated) | inconclusive: 7.59% | – |
| CC12CC(c3ccccc3O1)N(C(=O)c1ccco1)C(=O)N2c1ccccc1 (configuration not stated) | inconclusive: -9.98% | – |
| COc1ccccc1Nc1nc(N)nc(CSc2nccc(C)n2)n1 | – | inconclusive: 10 µM [rising, partial curve] |
| COc1ccccc1OCc1nc2c3c(-c4ccccc4)c(-c4ccccc4)oc3ncn2n1 | inactive | – |
| N#CC1=C(O)C(c2ccccc2)n2c1nc(=O)c1ccccc12 (configuration not stated) | – | inconclusive: 6.31 µM [falling, single point] |
| Cc1ccc(OCc2nnc(SCC(=O)Nc3ccc4c(c3)OCCO4)n2Cc2ccco2)cc1 | inconclusive: 6.73% [cytotoxic] | – |
| CCCS(=O)(=O)n1nc(-c2ccc(OC)cc2OC)cc1N | inactive | – |
| Cc1cc(=O)[nH]c(N2CCN(C(c3ccccc3)c3ccccc3)CC2)n1 | inconclusive: -0.444% | – |
| COc1ccc(/C(O)=C(\C#N)c2nc3ccccc3n2C)cc1OC | – | active: 5.01 µM |
| C[N+]1(C)CCc2cc(O)c(O)cc2[C@H]1Cc1ccc(O)c(O)c1 | inactive: 1.58% [at 7.6 µM] | – |
| CCn1c(SCC(=O)Nc2cc(C)c(Cl)cc2OC)nnc1-c1ccco1 | – | active: 12.6 µM |
| COC(=O)c1[nH]c2c(c1C)C(=O)CC(c1cccs1)C2 (configuration not stated) | – | active: 3.98 µM |
| O=C(O)c1cc(NCc2c(F)cccc2Cl)ccc1N1CCOCC1 | inconclusive: 4% | – |

| SMILES | activity change, negative = inhibition | Potency |
| --- | --- | --- |
| CCC(=O)N1CC23C=CC(CC2CC12CCCCC2)O3 (configuration not stated) | – | inconclusive: 1 µM [falling, single point] |
| CCCC(c1nnnn1CCC(C)C)N1CCC(C(N)=O)CC1 (configuration not stated) | inactive | – |
| Cc1nn(Cc2ccc(Cl)c(Cl)c2)c(C)c1NC(=O)c1cc(CC(C)C)on1 | inconclusive: -23.9% | – |
| CC(C)Cc1nnc(NS(=O)(=O)c2ccc(Cl)cc2)s1 | inactive | – |
| CNc1ncnc2ccc(-c3cccc(NS(C)(=O)=O)c3)cc12 | – | inconclusive: 12.6 µM [rising, partial curve] |
| COc1cc(-c2nc(N)n[nH]2)cc(OC)c1OC | – | inconclusive: 10 µM [rising, single point] |
| Cc1ccc(-c2nn3c(C)nnc3c3ccccc23)cc1S(=O)(=O)NCc1ccco1 | – | inconclusive: 2 µM [rising, full curve] |
| COc1ccc(-c2nc3cnc(N4CCN(C)CC4)nc3n(CCC#N)c2=O)cc1 | – | inconclusive: 12.6 µM [rising, partial curve] |
| CCOc1nc(-c2ccccc2)ccc1-c1noc(COc2ccccc2)n1 | inactive | – |
| O=c1ccc(S(=O)(=O)N2CCC(Cc3ccccc3)CC2)c[nH]1 | inconclusive: 15.1% | – |
| CCOC(=O)Cc1c(C)nc2cc(-c3ccc(Cl)cc3)[nH]n2c1=O | inactive | – |
| Cc1ccccc1NC(=O)c1nc[nH]c1C(=O)NCc1ccccc1 | – | active: 12.6 µM |
| Cc1ccccc1N1C(=O)CC(N(O)c2ccccc2)C1=O (configuration not stated) | inconclusive: -19.5% | – |
| COC(=O)c1ccc2c(=O)n3c(nc2c1)SCC(c1ccccc1)=N3 | inactive | – |
| COc1ccc(-n2c(CNC(=O)c3cc(OC)c(OC)c(OC)c3)n[nH]c2=S)cc1 | inconclusive: 0.713% | – |
| COc1ccc(OC)c(C(=O)CSc2nnc(Cc3cccs3)n2C)c1 | inconclusive: 20.3% | – |
| CC1C(=O)C(C)C(c2ccc3c(c2)OCO3)NC1c1ccc2c(c1)OCO2 (configuration not stated) | inconclusive: -3.24% | – |
| CC(=O)NCCNc1cc(-c2ccccc2C(F)(F)F)ncn1 | inactive | – |
| O=C(C1COc2ccccc2O1)N1CCN(c2ccccc2F)CC1 (configuration not stated) | inconclusive: -6.19% [at 7.6 µM] | – |
